Assay results from PubChem BioAssay AID2147 (National Center for Advancing Translational Sciences (NCATS), 2009).
Among all 230,000 compounds or so, about 3,600 (1.6%) were called active. Inconclusive results, whose numbers are uncertain, are shown with a selection of clear calls. Calls come from the whole dose curve; as a rule, active = well fitted inhibition curve with a large enough effect (not every such curve was filed as active); inconclusive = small, poorly fitted or top-dose-only effect, or another doubt; inactive = no such curve, though single readings can be large or run the other way. Potencies of inconclusive entries are doubtful fits and often do not repeat.

What follows are molecules tested against Lysine-specific demethylase 4E (Homo sapiens) (UniProt B2RXH2) (assay: qHTS Assay for Inhibitors of Human Jumonji Domain Containing 2E (JMJD2E)). Settings: JMJD2E catalytic domain, FDH-coupled NADH fluorescence (FDH is formaldehyde dehydrogenase); series mostly up to 57.1 µM.
UniProt B2RXH2, sequence (B2RXH2 whole entry, looked up, the tested form may be a part): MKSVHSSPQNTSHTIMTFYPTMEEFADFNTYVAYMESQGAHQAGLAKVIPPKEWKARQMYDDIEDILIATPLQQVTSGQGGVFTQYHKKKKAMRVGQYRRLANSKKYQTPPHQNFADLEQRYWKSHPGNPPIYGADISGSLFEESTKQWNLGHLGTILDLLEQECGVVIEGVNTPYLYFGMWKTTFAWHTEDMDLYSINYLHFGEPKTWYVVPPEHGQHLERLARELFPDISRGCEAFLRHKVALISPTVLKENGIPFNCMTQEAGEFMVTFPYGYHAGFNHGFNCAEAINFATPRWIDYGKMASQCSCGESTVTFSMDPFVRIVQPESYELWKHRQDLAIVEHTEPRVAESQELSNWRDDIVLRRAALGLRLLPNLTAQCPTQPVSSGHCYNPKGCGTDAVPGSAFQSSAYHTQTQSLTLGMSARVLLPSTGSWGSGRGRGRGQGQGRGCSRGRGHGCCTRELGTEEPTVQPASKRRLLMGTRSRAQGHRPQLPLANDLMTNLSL
Note: nearly all actives have a fitted effect of over 50% in size.
Potency is the fitted concentration of half-maximal effect; tags give direction and shape of the fitted curve.

Structure (SMILES)	Potency
COC(=O)C(NC(=O)c1ccco1)(Nc1cc(C)ccn1)C(F)(F)F (stereo not drawn)	inactive
COc1cc2cc(CN(CCc3ccccc3C)C(=S)NCCCN3CCOCC3)c(=O)[nH]c2cc1OC	inconclusive: 28.2 µM [inhibitor, partial curve]
O=C(CSc1nc(-c2ccccc2)nc2c1Cc1ccccc1O2)Nc1ccc(C(=O)O)cc1	inconclusive: 20 µM [inhibitor, single point]
CCOC(=O)Nc1c(C(=O)OC)[nH]c2cccc(OC)c12	inconclusive: 31.6 µM [inhibitor, single point]
O=C(CN1CCN(Cc2ccccc2)CC1)N/N=C\C=C/c1ccco1	inconclusive: 39.8 µM [inhibitor, single point]
O=C(N/N=C/c1cc(Cl)cc([N+](=O)[O-])c1O)c1ccccc1NS(=O)(=O)c1cccs1	active: 6.31 µM
COc1ccc(N2Nc3n[nH]c(N)c3N2)cc1	inconclusive: 17.8 µM [inhibitor, partial curve]
CCC(C)(C(=O)NC1CCCC1)N(C(=O)c1ccccn1)c1ccc(C)cc1 (stereo not drawn)	inconclusive: 39.8 µM [inhibitor, single point]
CCCCC(=O)OCC(=O)Nc1cccc(S(=O)(=O)NC2=NCCCCC2)c1	inactive
Cc1cc(/C=N/NC(=O)COc2cccc3cccnc23)c(C)n1-c1ccc(O)cc1	inconclusive: 22.4 µM [inhibitor, single point]
CCNC(=O)COC(=O)c1cc(=O)[nH]c2ccccc12	inconclusive: 31.6 µM [inhibitor, single point]
Nc1nc(N)c2sc3nc4c(cc3c2n1)CCC4	inconclusive: 22.4 µM [inhibitor, partial curve]
CS(=O)(=O)Nc1ccc(C2=NN(S(C)(=O)=O)C(c3cccs3)C2)cc1 (stereo not drawn)	inconclusive: 28.2 µM [inhibitor, partial curve]
N#Cc1nc(-c2ccc(F)cc2)oc1N1CCCC1	inconclusive: 25.1 µM [inhibitor, partial curve]
O=C(c1ccc2c3c(cccc13)CC2)C1CCCN(Cc2ccccn2)C1 (stereo not drawn)	inconclusive: 25.1 µM [inhibitor, partial curve]
Nc1nonc1-n1nnc(C(=O)N/N=C/c2ccc(OCc3ccccc3)cc2)c1COc1ccc(F)cc1	inconclusive: 11.9 µM [inhibitor, partial curve]
COC(=O)CSc1nc(C)c2ccc(OC)cc2n1	inconclusive: 28.2 µM [inhibitor, partial curve]
Cc1ccc(C(c2c(C)nn(-c3ccccc3)c2N)c2c(C)nn(-c3ccccc3)c2N)cc1	inactive
